Results as given in PMC12136788.
Some of the results follow.

B1: chrX:117909842:117909960:-|CDS|ENSG00000003096|unk|FALSE|unique (ssRNA)
RNA: GGGAGUUCUACAGUCCGACGAUCAGCACAGGGGAGUUCUUGAAACUCCCUUUUGAGCGUCUUGCCUUCGUGCUUUCCAGUAAUAGCCUUAAGCACUGUACUGAACUUGAGCUCUUUAAGGCUACCUGUCGUUGGCUUCGCCUGCAACAGAGGAUUGAGCAUCA
B2: chr3:31657911:31664018:-|three_prime_utr|ENSG00000144645|control|control|control (ssRNA)
RNA: GGGAGUUCUACAGUCCGACGAUCGGGUUUUUCUUGCUGAGCCCCCAAGACUGGAUAAAUACCAGGCAGGGGAAGGGAUGGACUAGGGCAGCUCGGUUCUGACUCCAGCUUUGGACAAGGCUUCAGGACAGGUUUUCUGCCACACAACAGAGGAUUGAGCAUCA
B3: chr22:20819776:20819877:-|CDS|ENSG00000241973|unk|FALSE|unique (ssRNA)
RNA: GGGAGUUCUACAGUCCGACGAUCUGUAACGUUUUCACUUGAUCUUCUAGAAUACCUUUGCAAGUAUGCUAUCCCAUGCCUGAUAGGAAUCUCGCGAGCAUUUGGGCGUUACAGCAACAUGGAAGAGUCUCUCCUCUCAAAGCUCAACAGAGGAUUGAGCAUCA
B4: chr14:100278170:100278208:+|3pUTR|ENSG00000100811|msi1_unk|FALSE|overlapping (ssRNA)
RNA: GGGAGUUCUACAGUCCGACGAUCGCUAUCUUAAUUUUGGUUGUAUUCUUUGAUGUUAACACAUUUUGUAUAAUUGUAUCGUAUAGCUGUAUUGAAUCAUGUAGUAUCAAAUAUUAGAUGUGAUUUAAUAGUGUUAAUCAAUUUCAACAGAGGAUUGAGCAUCA
B5: chr20:13714314:13714426:-|3pUTR|ENSG00000089048|unk|total|mutant (ssRNA)
RNA: GGGAGUUCUACAGUCCGACGAUCUUUUUCCCGCCAUAAAGGAUGGAAGUCAAGAACUUUUUGUUGUUCCGUCAUGUUAAGUACCGUUUAUGAAAUUAACUUGUAAAUAAAAGUGUAAAAUAUUUUCAUUAUUUUGUACCGCACCAACAGAGGAUUGAGCAUCA
B6: chr6:89938216:89938327:-|CDS|ENSG00000112182|unk|FALSE|unique (ssRNA)
RNA: GGGAGUUCUACAGUCCGACGAUCUCUUCCAAGGAACGAUUUCCAGAUGAUGAUUAAAAUGCACAAGCUAACCUCAGAACAGUUAGAGUUUAUUCAUGAUGUCCGACGGCGCAGCAAGAACCGCAUCGCGGCCCAGCGCUGCCGCAACAGAGGAUUGAGCAUCA
B7: chr3:50341111:50341409:-|three_prime_utr|ENSG00000004838|control|control|control (ssRNA)
RNA: GGGAGUUCUACAGUCCGACGAUCCGAUCUCCCUCCUCCUCACCCCAAGUGAAGGCUCGAGACUUCCUGCCCCACCCAGUGGGUAGGCCAAGUGUGUUGCUUCAGCAAACCGGACCAGGAGGGCCAGGGCCGGAUGUGGGGACCCAACAGAGGAUUGAGCAUCA
B8: chr7:77627539:77627665:+|CDS|ENSG00000127947|unk|FALSE|bound_elsewhere (ssRNA)
RNA: GGGAGUUCUACAGUCCGACGAUCAAUAUUUCAACAGCAAGUGCCACAGUUUCUGCUGCCACUAGUACUGAAAGCAUUUCUACUAGGAAAGUAUUGCCAAUGUCCAUUGCUAGACAUAAUAUAGCAGGAACAACACAUUCAGGUCAACAGAGGAUUGAGCAUCA
B9: chr11:75562225:75562326:+|5pUTR|ENSG00000149257|msi1|total|mutant (ssRNA)
RNA: GGGAGUUCUACAGUCCGACGAUCGCAGGAGGGGGUGGGGACUGCCAUAUACCGAUCCCGGGAGCAGGGGAGCGGGCUAAGAGCCGAAUCGUGUCGCGGCUCGAGAGCGAGAGUCACGUCCCGGCGCCCGCCCAGCCCGACCCACAACAGAGGAUUGAGCAUCA
B10: chr2:74529670:74529771:-|5pUTR|ENSG00000115307|unk|FALSE|unique (ssRNA)
RNA: GGGAGUUCUACAGUCCGACGAUCUCUCCGCCGGACGCGAGUUGUGAGACGGCCCAAGGGGCCGCGGGGUAUGCUGGGACCGCUAGCCCUUCCGGCGCGCCUCAGGACUUCGGGUCCCCUCACCCCGGGCGGAUGCCCAAAGACCAACAGAGGAUUGAGCAUCA
B11: chr17:44319658:44319728:-|3pUTR|ENSG00000013306|msi1_unk|FALSE|overlapping (ssRNA)
RNA: GGGAGUUCUACAGUCCGACGAUCUCCCUGUGUUUGCUGUAGCUGGGCAUGUCUCCAGGAACCAAGAAGCCCUCAGCCUGGUGUAGUCUCCCUGACCCUUGUUAAUUCCUUAAGUCUAAAGAUGAUGAACUUCUGCCUGGUGCCCAACAGAGGAUUGAGCAUCA
B12: chr7:73478007:73478118:-|CDS|ENSG00000009954|unk|FALSE|unique (ssRNA)
RNA: GGGAGUUCUACAGUCCGACGAUCAAAGGCACGCAGAAGAUGACACGAGCCCCACGGAAUUCUGGGGGUACACCUAGGACCUCUAGUAAACCUCAUAAACAUCUGCCUCCUGCAGCCCUACACCUCAUUGCAUACUACAAAGAACAACAGAGGAUUGAGCAUCA
B13: ENSG00000124766:be:win_1201|CDS|ENSG00000124766|bound_else_gene|NA|bound_elsewhere_windowed (ssRNA)
RNA: GGGAGUUCUACAGUCCGACGAUCUUCGAAGACGACCUGCUCGACCUGAACCCCAGCUCAAACUUUGAGAGCAUGUCCCUGGGCAGCUUCAGUUCGUCGUCGGCGCUCGACCGGGACCUGGAUUUUAACUUCGAGCCCGGCUCCCAACAGAGGAUUGAGCAUCA
B14: chr6:43013266:43013367:-|CDS|ENSG00000124733|msi1|FALSE|bound_elsewhere (ssRNA)
RNA: GGGAGUUCUACAGUCCGACGAUCAUCCCUGUCCUACCGCCUCCCUGUUCUUGCAGCCCCUGCCCGGAUGGCAACAGUAGUUCUAGGAGGAGACACCAUGGGCCCUGAGCGUAUCUUCCCCAAUCAGACUGAGGAACUGGGACACAACAGAGGAUUGAGCAUCA
B15: chr5:138349049:138349150:+|3pUTR|ENSG00000120709|msi1|total|mutant (ssRNA)
RNA: GGGAGUUCUACAGUCCGACGAUCGAGAAGGUCUACAGUUAUCAUUAUUUUAAUUCCAUUACUUUCAGUCUGGAAAACUAAGCCCGUCAGAACUGUCAUCUUGCUUCCCAAUCUAAGAACCUGUGGCCCUGGAACACUUUUCAACAACAGAGGAUUGAGCAUCA
B16: chr10:89774496:89774597:+|3pUTR|ENSG00000138182|msi1|total|mutant (ssRNA)
RNA: GGGAGUUCUACAGUCCGACGAUCAAGAUCUCAAGUCUUUAAUCCGAAUGUCUCACUUAUUUUGUAAACAUUUUGUGGGUACACCGUACAUGUAUAUAUUUACGGGGUAUGUGAGAUGUUUUGACACAGGCAUGCAAUGUGAAACAACAGAGGAUUGAGCAUCA
B17: chr11:124038068:124039001:-|CDS|ENSG00000182634|control|control|control (ssRNA)
RNA: GGGAGUUCUACAGUCCGACGAUCCAACGAGAUGGUCAUCUUUGUGAAUAUUGGGCUAGUGGCCUCGGGCUGCUUUGUCCUGAUAGUGCUGUCCUAUGUGUCCAUCGUCUGUUCCAUCCUGCGGAUCCGCACCUCAGAGGGGAGCAACAGAGGAUUGAGCAUCA
B18: chr20:35286537:35287972:-|CDS|ENSG00000125998|control|control|control (ssRNA)
RNA: GGGAGUUCUACAGUCCGACGAUCAAUCUCGGCAAGCUAGGGGCAUACCCAUGGUCCCAGUCCUCCCCUGCCCUCAACCAUAAUAGUACCAGCCCCUUAACCUUGGCAGUGGGGUCACCUCUGCUUCCUCGCUCCCGGCCCCUCCAACAGAGGAUUGAGCAUCA
B19: chr5:173316221:173316322:-|3pUTR|ENSG00000113739|msi1|total|mutant (ssRNA)
RNA: GGGAGUUCUACAGUCCGACGAUCAGUACUUUCAGUUUGGCGAGCCGUGAGGUCUCUGUCGAAACUACUCAACUCUGCCGUCCCCGCACAAAAGCAGCCACCGACAACACACAAACGAGAGGGCUUGGCUCCCUUCCAGGAAGACAACAGAGGAUUGAGCAUCA
B20: ENSG00000198589:be:win_2701|CDS|ENSG00000198589|bound_else_gene|NA|bound_elsewhere_windowed (ssRNA)
RNA: GGGAGUUCUACAGUCCGACGAUCGCAGUCAAAUAUGAGUGGGGUGGCUGGCGUGUAUGGGUAGACACUUUAUCAAUCACUCAUUCAAAGGUCACUUUUGAAAUACACAAAGAAAACCUUGCCAAUAUAUUUAGGGAACAGCAACAACAGAGGAUUGAGCAUCA
B21: chr5:151662744:151662768:-|3pUTR|ENSG00000113140|msi1_unk|FALSE|overlapping (ssRNA)
RNA: GGGAGUUCUACAGUCCGACGAUCGGGGCUCUAGGGACUGCCAGGCUGUUUCAGCCAGGAAGGCCAAAAUCAAGAGUGAGAUGUAGAAAGUUGUAAAAUAGAAAAAGUGGAGUUGGUGAAUCGGUUGUUCUUUCCUCACAUUUGCAACAGAGGAUUGAGCAUCA
B22: chr18:49591392:49591493:+|3pUTR|ENSG00000101670|msi1|FALSE|unique (ssRNA)
RNA: GGGAGUUCUACAGUCCGACGAUCCCUUCUUAGUUAUUAUGUGCCACCUCCCCUAUGAGUGACGUGUUUGAUCACUAGCAGAAUAGCAAGCAGAGUAUCAUUCAUGCUGGGGCCAGAAUGAUGGCCGGUUGCCAGAUAUAACUGCAACAGAGGAUUGAGCAUCA

These binders were tested against MSI1 full-length (mouse, UniProt Q61474 1-362) (assay: nsRBNS (natural sequence RNA bind-n-seq); RBNS binding buffer (assumed for nsRBNS): 25 mM Tris pH 7.5, 150 mM KCl, 3 mM MgCl2, 0.01% Triton X-100, 500 ug/ml BSA, 20 U/ml SUPERase-In, 4 C; UNK is unkempt and MSI1 is Musashi-1; names of the RNAs are library labels; protein concentration not given here; high values mean tight binding).
UniProt Q61474, sequence (Q61474 whole entry): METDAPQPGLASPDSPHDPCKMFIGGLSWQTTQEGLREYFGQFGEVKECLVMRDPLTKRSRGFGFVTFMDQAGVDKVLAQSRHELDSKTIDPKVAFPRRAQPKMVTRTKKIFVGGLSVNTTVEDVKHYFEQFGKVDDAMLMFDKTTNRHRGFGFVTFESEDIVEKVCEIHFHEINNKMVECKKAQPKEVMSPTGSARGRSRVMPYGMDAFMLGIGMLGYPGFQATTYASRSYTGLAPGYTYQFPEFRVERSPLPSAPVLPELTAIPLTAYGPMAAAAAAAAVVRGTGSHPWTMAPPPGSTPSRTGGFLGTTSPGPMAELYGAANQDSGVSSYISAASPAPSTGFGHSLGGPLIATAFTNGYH

Row | Binder | binding signal [enrichment R]
1 | B1 | 0.308
2 | B2 | 0.515
3 | B3 | 0.264
4 | B4 | 16
5 | B5 | 0.796
6 | B6 | 0.413
7 | B7 | 0.426
8 | B8 | 0.303
9 | B9 | 0.505
10 | B10 | 0.342
11 | B11 | 1.4
12 | B12 | 0.46
13 | B13 | 0.417
14 | B14 | 0.76
15 | B15 | 0.418
16 | B16 | 0.231
17 | B17 | 0.398
18 | B18 | 0.687
19 | B19 | 0.523
20 | B20 | 1.26
21 | B21 | 4.98
22 | B22 | 12.1
